Counter-ions that a name gives are not always drawn. Whole data set: some 2,000 compounds, median “fractional viability relative to vehicle” near 0.92, cut for the lowest 2% near 0.11. The list shows a part of the results.

This test has as its system TYKNU. In words: fractional viability relative to vehicle; TYKNU is a high-grade serous ovarian cancer line; higher = less growth inhibition. The settings on record: 72 h, genotype: OPA1 knockout (sgOPA1 #2). The method in brief:
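TYKNU control cells or lentiCRISPRv2 knockout derivatives were seeded at 500 cells per well into drug-stamped 384-well plates holding a ~2100-compound library at 2 or 10 μM, in duplicate. Cells were grown at 37 °C in 5% CO2 in RPMI 1640 with 10% FBS, and drug treatment lasted 72 h. Viability was read by Cell Titer Glo luminescence. Duplicate treatment wells were averaged and normalised to duplicate control wells from the same plate position.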

As to `O=C(O)CSCC(=O)NC1CCSC1=O` (stereo unspecified) [Erdosteine], the fractional viability is, setting by setting: (2uM) 0.933; (10uM) 0.942.
Taken in the same sequence, the figures for `COc1cc(/C=C/C(=O)CC(=O)/C=C/c2ccc(O)c(OC)c2)ccc1O` [Curcumin] were 0.989 and 0.813.
Taken in the same sequence, the figures for `Cc1c[nH]c(/C=C2\C(=O)Nc3ccccc32)c1CCC(=O)O` were 0.793 and 0.846.
On the same counts, the results for `Cc1ccccc1N=Nc1ccc(NC(=O)c2ccnn2C)c(C)c1` are 0.902 and 0.923.
`Cn1cc(-c2ccc(S(=O)(=O)n3ccc(/C=C/C(=O)Nc4ccccc4N)c3)cc2)cn1` showed a fractional viability (2uM) of 0.351 and a fractional viability (10uM) of 0.193.
On the same counts, the results for `CCc1oc2ccccc2c1C(=O)c1cc(Br)c(O)c(Br)c1` [Benzbromarone] are 0.978 and 0.938.
With `CC/C(=C(\c1ccccc1)c1ccc(OCCN(C)C)cc1)c1ccccc1` [Tamoxifen Citrate], the fractional viability stood at 1.4 (2uM) and 0.815 (10uM).
Taken in the same sequence, the figures for `C=C(c1ccc(C(=O)O)cc1)c1cc2c(cc1C)C(C)(C)CCC2(C)C` [Bexarotene] were 1.1 and 0.876.
On the same counts, the results for `CN(C)CCCCC(=O)Nc1ccc(NC(=S)NC(=O)c2ccc(C(C)(C)C)cc2)cc1` [Tenovin-6] are 0.783 and 0.155.
Taken in the same sequence, the figures for `CC[N+](CC)(CC)CCOc1cccc(OCC[N+](CC)(CC)CC)c1OCC[N+](CC)(CC)CC` [Gallamine Triethiodide] were 1.08 and 0.833.
Consider `CN1CCC[C@@H]1CCO[C@](C)(c1ccccc1)c1ccc(Cl)cc1` [Clemastine Fumarate], for which the fractional viability (2uM) amounted to 1.04 and the fractional viability (10uM) came to 0.931.
`CCOc1ccc(NC(C)=O)cc1` [Phenacetin] had a fractional viability (2uM) of 0.999 and a fractional viability (10uM) of 0.827.
As for `O=C(c1ccc(OCCCc2c[nH]cn2)cc1)C1CC1` [Ciproxifan], the fractional viability turned out to be 1.1 (2uM) and 0.986 (10uM).
On the same counts, the results for `CC(C)[C@H](N)C(=O)OCC(CO)OCn1cnc2c(=O)[nH]c(N)nc21` (stereo partly specified) [Valganciclovir HCl] are 0.846 and 0.832.
On the same counts, the results for `CC(C(=O)O)c1ccc(C(=O)c2cccs2)cc1` (stereo unspecified) [Suprofen] are 1.11 and 0.868.
`CN1CCN(c2nc(C3=C(c4c[nH]c5ccccc45)C(=O)NC3=O)c3ccccc3n2)CC1` [Sotrastaurin]: the fractional viability reads like this: (2uM) 1.05; (10uM) 0.803.
On the same counts, the results for `COc1cc2ncnc(Nc3ccc(F)c(Cl)c3)c2cc1OCCCN1CCOCC1` [Gefitinib (ZD1839)] are 1.15 and 0.804.
On the same counts, the results for `CCCCC[C@H](O)/C=C/[C@H]1[C@H](O)CC(=O)[C@@H]1CCCCCCC(=O)O` [Alprostadil] are 1.1 and 0.989.
Taken in the same sequence, the figures for `NC1=N[C@@](c2cccc(-c3cncnc3)c2)(c2ccnc(C(F)F)c2)c2cccc(F)c21` were 0.845 and 0.771.
`O=C(O)c1ccccc1` [Benzoic Acid] gave a fractional viability (2uM) of 0.885 and a fractional viability (10uM) of 0.957.
Taken in the same sequence, the figures for `CC[C@@H]([C@H](C)O)n1ncn(-c2ccc(N3CCN(c4ccc(OC[C@@H]5CO[C@@](Cn6cncn6)(c6ccc(F)cc6F)C5)cc4)CC3)cc2)c1=O` [Posaconazole] were 1.18 and 0.872.
For the molecule `COc1ccc(CN2CCN(C(c3ccc(F)cc3)c3ccc(F)cc3)CC2)c(OC)c1OC` [Lomerizine HCl], the fractional viability is 0.896 (2uM) and 0.906 (10uM).
Taken in the same sequence, the figures for `CC(C)Cc1ccc(C(C)C(=O)O)cc1` (stereo unspecified) [Ibuprofen] were 1.02 and 0.942.
On the same counts, the results for `CCN1CCN(Cc2ccc(Nc3ncc(F)c(-c4cc(F)c5nc(C)n(C(C)C)c5c4)n3)nc2)CC1` are 0.602 and 0.0904.
Taken in the same sequence, the figures for `COCCc1ccc(OCC(O)CNC(C)C)cc1` (stereo unspecified) [Metoprolol Tartrate] were 1.16 and 1.04.
`O=C(O)c1cc(I)ccc1NC(=O)[C@H](Cc1ccccc1)NCc1ccccc1`: the fractional viability was determined as 0.885 (2uM) and 0.822 (10uM).
Taken in the same sequence, the figures for `O=c1c(O)c(-c2ccc(O)c(O)c2)oc2cc(O)cc(O)c12` [Quercetin Dihydrate] were 1.16 and 0.984.
Taken in the same sequence, the figures for `O=c1c(O)c(-c2ccc(O)c(O)c2)oc2cc(O)cc(O)c12` [Quercetin] were 0.873 and 0.927.
On the same counts, the results for `COc1ccc(C2=N[C@H](c3ccc(Cl)cc3)[C@H](c3ccc(Cl)cc3)N2C(=O)N2CCNC(=O)C2)c(OC(C)C)c1` [Nutlin-3b] are 0.806 and 0.737.
Consider `Cc1cnc(C(=O)O)c[n+]1[O-]` [Acipimox], for which the fractional viability was found to be 1.12 (2uM) and 1 (10uM).
Taken in the same sequence, the figures for `O=C(c1cncc(Br)c1)N1CCC(N2CCCC2)CC1` were 0.797 and 0.838.
On the same counts, the results for `O=C(Nc1ccc([N+](=O)[O-])cc1O)Nc1ccccc1Br` are 0.491 and 0.313.
On the same counts, the results for `CCN(CC)CCOc1ccc(C(=C(Cl)c2ccccc2)c2ccccc2)cc1` [Clomifene citrate] are 0.952 and 0.564.
For the molecule `CCCCNc1ccc(C(=O)OCCN(C)C)cc1` [Tetracaine HCl], the fractional viability by setting is: (2uM) 1.01; (10uM) 1.08.
Taken in the same sequence, the figures for `CCCCCOC(=O)Nc1nc(=O)n([C@@H]2O[C@H](C)[C@@H](O)[C@H]2O)cc1F` [Capecitabine] were 1.01 and 0.906.
Consider `COc1cc2ncnc(Oc3ccc(CC(=O)Nc4cnn(C(C)C)c4)cc3)c2cc1OC`, for which the fractional viability reads like this: (2uM) 0.949; (10uM) 0.942.
Regarding `CN1CCC(=C2c3ccccc3CCc3sccc32)CC1` [Pizotifen Malate], the fractional viability runs as follows: (2uM) 1.05; (10uM) 0.984.
On the same counts, the results for `COc1ncc(-c2ccc3nccc(-c4ccnnc4)c3c2)cc1NS(=O)(=O)c1ccc(F)cc1F` are 0.354 and 0.0636.
On the same counts, the results for `Cc1cc(-c2ncc(CC(=O)Nc3ccc(-c4cnccn4)cn3)cc2C)ccn1` are 0.961 and 0.859.
Taken in the same sequence, the figures for `Cc1cnc(C(=O)NCCc2ccc(S(=O)(=O)NC(=O)NC3CCCCC3)cc2)cn1` [Glipizide] were 0.88 and 0.973.
On to `CN1CCC(NC(=O)c2cc(-c3c(O)cc(O)cc3Oc3ccc([N+](=O)[O-])cc3)on2)CC1`, for which the fractional viability runs as follows: (2uM) 0.555; (10uM) 0.609.
On the same counts, the results for `c1cc(-c2cnn3cc(-c4ccc(OCCN5CCCCC5)cc4)cnc23)ccn1` [Dorsomorphin (Compound C)] are 1.37 and 0.744.
Taken in the same sequence, the figures for `O=C1[C@H](CC[C@H](O)c2ccc(F)cc2)[C@@H](c2ccc(O)cc2)N1c1ccc(F)cc1` [Ezetimibe] were 0.948 and 1.02.
On the same counts, the results for `Nc1ncnc2c1C(=O)N(c1ccc([C@H]3CC[C@H](CC(=O)O)CC3)cc1)CCO2` are 0.723 and 0.773.
For the molecule `Oc1cc(O)c(Cl)cn1` [Gimeracil], the fractional viability is 0.856 (2uM) and 1.01 (10uM).
Taken in the same sequence, the figures for `COc1ccc2cc(OCC3(C(=O)O)CN(C(=O)c4ccc(F)cc4)C3)ccc2c1` were 1.03 and 0.994.
As to `COC(=O)C1=C(C)NC(C)=C(C(=O)OCC(C)C)C1c1ccccc1[N+](=O)[O-]` (stereo unspecified) [Nisoldipine], the fractional viability runs as follows: (2uM) 0.737; (10uM) 0.885.
Consider `CC[C@@H]1/C=C(\C)C[C@H](C)C[C@H](OC)[C@H]2O[C@@](O)(C(=O)C(=O)N3CCCC[C@H]3C(=O)O[C@H](/C(C)=C/[C@@H]3CC[C@@H](O)[C@H](OC)C3)[C@H](C)[C@@H](O)CC1=O)[C@H](C)C[C@@H]2OC` [Ascomycin (FK520)], for which the fractional viability reads like this: (2uM) 0.751; (10uM) 0.644.

The values are drawn from the supplement of paper PMC5919970.
